The campaign covered roughly 310,000 compounds. About 2,200 (0.71%) showed an effect of 50% or more. Effects have a minus sign here. The list shows a part of the results.
Target: human ether-à-go-go-related gene (hERG) potassium channel (human, UniProt Q12809)
Assay: primary screen, population patch clamp on CHO cells stably expressing hERG

Sequence of human ether-à-go-go-related gene (hERG) potassium channel (Q12809 whole entry, looked up): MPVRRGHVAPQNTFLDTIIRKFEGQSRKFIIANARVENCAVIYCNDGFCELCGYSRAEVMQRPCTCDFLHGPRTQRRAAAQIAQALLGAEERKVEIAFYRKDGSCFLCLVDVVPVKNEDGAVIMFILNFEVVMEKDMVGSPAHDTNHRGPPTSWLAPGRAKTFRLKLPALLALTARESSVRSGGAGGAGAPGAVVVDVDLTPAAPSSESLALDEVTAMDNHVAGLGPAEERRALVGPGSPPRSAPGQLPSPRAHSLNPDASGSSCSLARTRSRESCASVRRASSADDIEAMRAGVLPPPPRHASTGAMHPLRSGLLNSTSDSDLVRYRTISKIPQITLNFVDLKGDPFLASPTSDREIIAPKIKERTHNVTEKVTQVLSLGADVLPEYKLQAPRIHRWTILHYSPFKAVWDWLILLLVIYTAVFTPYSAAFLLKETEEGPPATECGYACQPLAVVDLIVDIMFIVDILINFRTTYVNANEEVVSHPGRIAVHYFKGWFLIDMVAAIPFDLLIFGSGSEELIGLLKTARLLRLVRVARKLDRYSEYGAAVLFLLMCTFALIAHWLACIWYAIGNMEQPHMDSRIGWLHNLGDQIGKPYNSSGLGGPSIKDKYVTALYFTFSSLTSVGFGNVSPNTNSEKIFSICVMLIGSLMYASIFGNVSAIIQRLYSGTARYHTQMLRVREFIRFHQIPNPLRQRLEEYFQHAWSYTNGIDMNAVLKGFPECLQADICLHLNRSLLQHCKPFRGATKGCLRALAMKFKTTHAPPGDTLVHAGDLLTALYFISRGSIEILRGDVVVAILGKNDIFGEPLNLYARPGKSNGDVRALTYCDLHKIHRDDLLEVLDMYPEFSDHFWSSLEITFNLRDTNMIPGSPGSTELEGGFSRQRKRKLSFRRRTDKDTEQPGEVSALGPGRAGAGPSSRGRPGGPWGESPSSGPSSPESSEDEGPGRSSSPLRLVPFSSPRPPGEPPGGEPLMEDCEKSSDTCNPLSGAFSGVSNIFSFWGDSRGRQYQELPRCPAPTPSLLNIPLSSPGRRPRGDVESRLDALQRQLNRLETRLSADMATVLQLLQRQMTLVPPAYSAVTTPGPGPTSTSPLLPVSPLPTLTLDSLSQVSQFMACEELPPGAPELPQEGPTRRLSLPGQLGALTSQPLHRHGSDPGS

SMILES	hERG current change (%, negative = inhibition) at 1uM [%]
CCC(=O)c1ccc(OC)c(OC)c1O	6.78
O=C1[C@H]2[C@@H](c3ccc(F)cc3)N3C(=O)N(c4ccc(C(F)(F)F)cc4)C(=O)[C@@]3(Cc3ccccc3)[C@H]2C(=O)N1C1CCCCC1	12.7
Cc1ccc2nc(-c3ccncc3)cc(C(=O)Nc3ccc4c(c3)OCCO4)c2c1	7.75
COc1ccc(-c2cc(C(=O)N3CCCCCC3)no2)cc1OC	17.8
COc1ccc(O)c(C(=O)c2cc(C#N)c(=O)n(Cc3ccccc3)c2)c1	8.35
C#CC1(NC(=O)NC(C)C)CCCCC1	6.28
CC(=O)c1nn(-c2cccc(C(F)(F)F)c2)c(=O)[nH]c1=O	10.5
COc1ccc([N+](=O)[O-])cc1NC(=O)Nc1ccc(OC)c(OC)c1	5.9
O=C(CN1C(=O)c2ccccc2C1=O)NCCc1c[nH]c2ccccc12	2.22
CCOc1ccccc1C(=O)NCC(=O)O	20
CC(C)NC(=O)C1CCCN(S(=O)(=O)c2ccc(-n3cnnn3)cc2)C1 (centres unmarked)	8.86
CCc1cc(C(=O)OC)c(NC(=O)CN2CCN(C(=O)c3ccco3)CC2)s1	-12.5
CCCCn1c(O)c(C(=O)/C=C/c2c[nH]c3ccccc23)c(=O)[nH]c1=O	4.16
O=C(COc1ccc(Br)cc1)Nc1ccccc1C(=O)NC1CC1	10
O=C(c1ccc([N+](=O)[O-])o1)N(Cc1nnc(-c2ccccc2Cl)o1)C1CC1	3.35
O=C(/C=C1\SC(=O)NC1=O)Nc1ccc(C(=O)O)cc1	11.9
Cc1nn(-c2ccccc2)c2nc(N)c(C(N)=O)cc12	12.3
O=C1c2ccccc2CCC12N=NCC2c1ccccc1 (centres unmarked)	-8.49
CC(C)Oc1nc(-c2ccccc2O)nc2ccccc12	8.54
Cc1nc2ccc(NC(=O)N(C)c3ccccc3)cc2s1	-0.205
O=C(CN(C(=O)CCC(=O)Nc1ccccn1)c1ccccc1F)NCc1ccc2c(c1)OCO2	9.34
CC(C)(C)S(=O)(=O)c1c(C(=O)O)cccc1C(=O)O	5.13
Cc1cccc(C(=O)NCCCNC(=O)c2ccc(C)nc2)c1	10.6

SMILES	hERG current change (%, negative = inhibition) at 1uM [%]
C/C(CCC(=O)O)=N/Nc1ccc([N+](=O)[O-])cc1[N+](=O)[O-]	-3.18
Cc1cc(C)c(C)c(S(=O)(=O)NCCCN2CCOCC2)c1C	13.6
O=C(Nc1c[nH]c2c(Cl)cccc2c1=O)N1CCN(c2ccccn2)CC1	17
Cc1c(C(=O)N2CCN(Cc3ccc4c(c3)OCO4)CC2)cccc1[N+](=O)[O-]	4.18
Fc1cccc(Nc2nc(N3CCOCC3)nc(N3CCOCC3)n2)c1	6.73
CS(=O)(=O)Nc1ccc(C(=O)NCc2ccccn2)cc1	11
O=C(c1cc(-c2cccnc2)nc2ccccc12)N1CCCc2ccccc21	5.69
COc1ccccc1CNS(=O)(=O)c1ccc2c(c1)NC(=O)C(C)S2 (centres unmarked)	1.23
CC(CNC(=O)CN1C(=O)NC2(CCCCC2)C1=O)c1ccccc1 (centres unmarked)	4.87
CCn1c(NC(=O)C(C)C)c(-c2cccs2)c(=O)c2ccccc21	11.3
COc1ccc(CCNC(=O)[C@H](C)NC(=O)[C@@H]2CSC3c4ccccc4C(=O)N32)cc1 (some centres unmarked)	9.13
CC(C)N1CCN(Cc2cccn2-c2ccccn2)CC1CCO (centres unmarked)	-16
Cc1ccc(CS(=O)(=O)Cc2ccc(C(=O)NCC3CCCO3)o2)cc1 (centres unmarked)	12.1
CCCS(=O)(=O)N1CCC(C(=O)NCCc2ccccc2)CC1	7.22
N#C/C(=C(/O)c1ccc(Br)s1)c1nc2ccccc2[nH]1	11.7
Nc1nncn1C(=O)c1ccccc1Cl	9.68
O=C(CCCCn1c(=O)c2ccccc2n(CC(=O)NC2CCCC2)c1=O)NC1CCCC1	10.8
O=C(COC(=O)CCC(=O)c1cccs1)Nc1cccc(F)c1	9.11
CCCSc1nc(SCC(=O)NCc2ccccc2)c2c3c(sc2n1)COC(C)(C)C3	7.08
Oc1ccccc1-c1cc(-c2ccco2)[nH]n1	11.4
CCC(=O)c1ccc(OCc2ccc(C#N)cc2)cc1	19.5
Cc1ccc(S(=O)(=O)N/N=C\c2cc3c(cc2[N+](=O)[O-])OCO3)cc1	18
COc1ccccc1Nc1nc(N)nc(CN2CCN(Cc3ccc4c(c3)OCO4)CC2)n1	-79.8

SMILES	hERG current change (%, negative = inhibition) at 1uM [%]
COc1ccccc1-n1nnnc1SCC(=O)Nc1oc(C)c2c(C)n[nH]c(=O)c12	10.9
CC(C)Sc1cc(N2CCCC2)nc(-c2ccccc2)n1	-26
C/C(CC(=O)Nc1ccc2c(c1)OCCO2)=N\NC(=O)COc1ccc(C)cc1	10.1
CCNc1sc(C(=O)c2cccs2)c(N)c1-c1nc2ccccc2s1	15.9
CN(C)c1ccc(P(=O)(CC(=O)N/N=C/c2ccc(C#N)cc2)OCCCl)cc1 (centres unmarked)	0.413
Cc1ccc(C)c(S(=O)(=O)C(C#N)c2nc3ccccc3nc2N2CC(C)OC(C)C2)c1 (centres unmarked)	4.08
O=C(COc1ccc(C2SCCS2)cc1)NNC(=O)C(Cl)Cl	15.2
Cc1ccc(Sc2nc(-c3ccccc3)ccc2C#N)cc1	8.67
O=C(Nc1cccc(C(F)(F)F)c1)c1ccccc1NC(=O)C1CCCCC1	7.46
CN(C)/C=C(\C(=O)c1cccc(Cl)c1)c1nnnn1-c1ccccc1	14.3
CSc1ncc(-c2ccc(Cl)cc2)[nH]1	4.48
Cc1nnc(SCC(=O)N/N=C/c2cc(Cl)c(O)c(Cl)c2)s1	11.6
Cc1csc(NC(=O)c2cccc([N+](=O)[O-])c2C(=O)O)n1	13.5
O=C(NN=C(Cc1ccccc1)Cc1ccccc1)c1ccccc1F	12.1
CC(C(=O)N1CCc2ccccc21)N(C)CC(=O)Nc1cccc(F)c1 (centres unmarked)	-0.982
Cn1nc(C(=O)Nc2cccc(C(=O)NC3CC3)c2)c2ccccc2c1=O	4.45
O=C(NCCS(=O)(=O)N1CCN(c2ccc(F)cc2)CC1)c1ccco1	-22.7
CC(=O)c1c(C)[nH]c(C(=O)OCC(=O)NCc2ccc(Cl)cc2)c1C	7.96
Cc1ccc(S(=O)(=O)NCc2cn3ccccc3n2)c(C)c1	14.9
COc1ccccc1NC(=O)c1sc2nc(Cc3ccccc3)cc(C(F)(F)F)c2c1N	-0.71
COc1ccccc1C(=O)C1CCCN(C(=O)c2cc(C(C)C)no2)C1 (centres unmarked)	-0.256
COc1ccc(C(=O)NC(=S)NCc2ccc(-c3nc4ccccc4o3)cc2)cc1OC	8.57
Cc1sc(NC(=O)CCCCC(=O)Nc2sc(C)c(C)c2C(=O)O)c(C(=O)O)c1C	4.53

SMILES	hERG current change (%, negative = inhibition) at 1uM [%]
O=C(NCCc1ccccc1)c1ccnc(/C=N/O)c1	-2.66
COc1ccc(N2CCN(S(=O)(=O)c3c[nH]c(=O)[nH]c3=O)CC2)cc1	16.8
CCC(C)NC(=O)CSc1nc2c(sc(=S)n2-c2cc(Cl)ccc2OC)c(=O)[nH]1 (centres unmarked)	13.6
Cc1ccc(N(C(=O)c2ccccc2Cl)C2=NC(C)CS2)c(C)c1 (centres unmarked)	9.22
O=C(Nc1ccc(Br)c(Cl)c1)C1CC1	2.32
O=C(CSc1ccc2ccccc2c1)Nc1nc2ccccc2[nH]1	6.91
CCN(CC(=O)NCc1ccc(Cl)cc1)C(=O)Cc1ccccc1[N+](=O)[O-]	-29.5
COc1ccccc1C(=O)Nc1ccnn1C1CCN(Cc2ncc[nH]2)CC1	6
O=C(CCc1nnc(CCc2ccccc2)o1)NC(c1cccnc1)C(F)(F)F (centres unmarked)	-0.569
COc1ccc(CNC(=O)N2CCN(c3ccccc3)CC2)cc1	14.9
Cc1ccccc1OCCCN1CCOCC1	10.1
COc1ccc(/C=c2\sc3nc(=O)c(C)nn3c2=O)c(OC)c1	15.2
Cc1cc(NC(=O)CCCn2nc([N+](=O)[O-])cc2C)no1	10.8
CSCCC(NC(=O)COc1ccccc1)C(=O)OCC(=O)c1cc2ccccc2o1 (centres unmarked)	14.2
CC(C)NC(=O)CNc1ccc(C(F)(F)F)cc1[N+](=O)[O-]	12.3
Cl.Clc1ccc(CSc2nnc([C@@H]3CCCN3)o2)cc1Cl	13.8
COc1cc(S(=O)(=O)NC2CCCC2)c(OC)cc1Cl	-1.45
CC1CC(C)CN(C(=O)c2ccccc2Nc2ccc(SC(F)F)cc2)C1 (centres unmarked)	8.82
c1ccc(-c2cnc(CN3CCN(c4ccccc4)CC3)o2)cc1	12.4
CSc1cccc(NC(=S)NCCCN2CCN(c3ccc(F)cc3)CC2)c1	-3.39
